# From PubChem BioAssay AID493208 (National Center for Advancing Translational Sciences (NCATS), 2011)
# In all, about 44,000 compounds went through this assay and about 340 (0.77%) were called active. Inconclusive results (about 5%) are left out. Calls follow the shape of the dose curve; as a rule, active = well fitted inhibition curve with a large enough effect; inconclusive = small, poorly fitted or top-dose-only effect; inactive = flat fitted curve, though single readings scatter. The list shows a part of the results.
# Test: Acumen qHTS Assay for Inhibitors of the mTORC1 Signaling Pathway in MEF (Tsc2-/-, p53-/-) Cells: Sytravon; also: nearly all actives have a fitted effect of over 50% in size;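 as to activity change, negative = inhibition: plate controls were DMSO for no effect and rapamycin for full effect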
# Conditions: phospho-rpS6 immunofluorescence/PI, 24 h; series mostly up to 38.3 µM; activity change, negative = inhibition: at the top concentration
# Method in brief: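 Readout is phospho-S6 Alexa 488 signal normalized to PI per well, reported as % active cells with thresholds set from rapamycin (7.5 nM) and DMSO controls. Cells: Tsc2-/-, p53-/- MEFs, 24 hrs compound at 37 C; PI cell number serves as viability.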
# Potency is read from the fitted curve at half-maximal effect.
SMILES,"activity change, negative = inhibition",Potency
COc1cc(/C=C(\C#N)c2nc3ccccc3[nH]2)ccc1OCc1cccc(C(F)(F)F)c1,inactive: 12.4%,–
CCOc1ccccc1NC(=O)c1ccc(F)c(S(=O)(=O)NCc2ccc3c(c2)OCO3)c1,inactive: 3.07%,–
CCOc1ccccc1NC(=O)N1CCc2c(sc(C)c2CC)C1c1ccccc1 (centres undefined),inactive: -6.93%,–
COc1ccc(CNc2ncnc3onc(-c4ccc(F)cc4)c23)cc1,inactive: -8.83%,–
CCOC(=O)c1c(C)[nH]c(CCC(=O)NCCCN2CCN(c3cc(C)ccc3C)CC2)c1C,–,active: 13.1 µM
COc1ccccc1CNC(=O)CN1C(=O)CSc2ccc(S(=O)(=O)N(C)C)cc21,inactive: 3.89%,–
O=C(CCNS(=O)(=O)c1ccc2c(c1)CCN2C(=O)C1CC1)N1CCN(c2ccccc2F)CC1,inactive: -17.5%,–
CCOc1ccc(S(=O)(=O)N2CCN(c3ccc(Cl)c(Cl)c3)CC2)c2ccccc12,inactive: -3.59%,–
CC(=O)OC(COc1ccccc1)Cn1cnc2cc(C)c(C)cc21 (centres undefined),inactive: -15.2%,–
COc1ccc(NC(=O)CC2C(=O)N(c3ccc(C)cc3)C(=O)N2C2CCCCC2)cc1 (centres undefined),inactive: -2.2%,–
O=C(CCSCc1ccccc1Cl)N1CCN(c2cccc(Cl)c2)CC1,inactive: 12.7%,–
CCCn1c(CCC(=O)Nc2cc(Cl)c(OC)cc2OC)nc2cccnc21,inactive: -20.3%,–
Cc1ccc(C)c(NC(=O)CSc2ncc3c(n2)-c2ccc(Cl)cc2N(C)S3(=O)=O)c1,inactive: 2.28%,–
CCn1nc(-c2ccccc2)c(-c2ccccc2)c(C(=O)Nc2nc(C)c(C(=O)N(C)C)s2)c1=O,inactive: -10.8%,–
CCc1nc2cccnc2n1-c1ccc(CC(=O)Nc2ccc(C)cc2)cc1,inactive: -3.16%,–
O=C(Cn1c(=O)n(-c2ccccc2Cl)c(=O)c2sc3ccccc3c21)N1CCCC1,inactive: -8.4%,–
CCOc1ccc(CNC(=O)c2cnc3sc(N(CC)CC)nn3c2=O)cc1OC,inactive: 10.4%,–
CC(C)N(Cc1ccccc1)C(=O)CN1C(=O)COc2ccc(S(=O)(=O)NC3CCCC3)cc21,inactive: 1.73%,–
Cc1cc(C)cc(NC(=O)CCc2nnc3n(CC(C)C)c(=O)c4ccccc4n23)c1,inactive: -0.7%,–
Cc1ccc(NC(=O)CSc2nc3nccnc3c(=O)n2CCc2c[nH]c3ccccc23)cc1,inactive: 0%,–
CCN(C(=O)CSc1nc2ccccc2n1CC(=O)Nc1ccccc1C)c1ccccc1,inactive: -3.23%,–
COc1cc(CNc2ccc3[nH]c(=O)[nH]c3c2)ccc1OCc1ccccc1F,inactive: -1.82%,–
COc1ccc(-n2ccn(Cc3ccccc3Cl)c(=O)c2=O)cc1OC,inactive: 4.95%,–
CN(C)c1ccc(C(CNS(=O)(=O)c2ccc(Br)cc2)N2CCCC2)cc1 (centres undefined),inactive: 0.342%,–

SMILES,"activity change, negative = inhibition",Potency
CCN(CC)S(=O)(=O)c1ccc(NC(=O)CCc2c(C)nc3cc(-c4ccc(Cl)cc4)nn3c2C)cc1,–,active: 11.7 µM
COc1ccc(Cl)cc1NC(=O)CSc1ccc(-c2sc(C)nc2C)nn1,inactive: 0.128%,–
CC(C)Cc1nn2c(=O)cc(COC(=O)c3ccc4c(c3)OCO4)nc2s1,inactive: 0.936%,–
CCOC(=O)c1cc2c(=O)n3ccccc3nc2n(CCCOC)c1=NC(=O)C(C)(C)Oc1ccc(Cl)cc1,inactive: 1.88%,–
COc1ccc(CNC(=O)CSc2nc3ccsc3c(=O)n2Cc2ccccc2Cl)cc1,inactive: -23.3%,–
CCc1ccc(N2C(=O)CC(c3cc(OC)ccc3OC)C3=C2COC3=O)cc1 (centres undefined),inactive: -24.5%,–
O=C(Nc1ccc2oc(-c3cccnc3)nc2c1)c1ccc(-c2ccc(Cl)cc2)o1,inactive: -2.22%,–
Cc1cc2oc(C(=O)Nc3sc4c(c3C(=O)NCC3CCCO3)CCC4)cc(=O)c2cc1C (centres undefined),inactive: 3.92%,–
Cc1ccc(NC(=O)Cn2ncn3c(cc4ccccc43)c2=O)c(C)c1,inactive: -0.95%,–
CCOc1ccc(C2CC(=O)n3nc(-c4ccc(C)cc4)nc3S2)cc1 (centres undefined),inactive: 16.5%,–
COc1ccccc1CNC(=O)Cc1csc2nc(-c3ccc(Cl)cc3)cn12,inactive: -8%,–
CC(NC(=O)c1ccc2c(c1)N(Cc1ccc(Cl)cc1)C(=O)c1ccccc1S2(=O)=O)c1ccccc1 (centres undefined),inactive: 3.43%,–
CCOc1cc2sc(N3CCC(C(=O)Nc4ccc(C)cc4)CC3)nc2cc1Br,inactive: -2.46%,–
CCCCCn1c(=N)c(S(=O)(=O)c2ccccc2)cc2c(=O)n3ccccc3nc21,inactive: -7.54%,–
CCOc1ccc(CCNC(=O)Cn2nc(CC)n3c(cc4sc(CC)cc43)c2=O)cc1OCC,inactive: -8.12%,–
O=c1oc2c(CN3CCOCC3)c(O)ccc2cc1-c1ccc(Cl)cc1,inactive: -9.52%,–
CCn1c(=O)c2cc(C(=O)NC3CCCCCC3)sc2c2ccccc21,inactive: -7.6%,–
CCOC(=O)c1sc(NC(=O)c2nc3ncccn3n2)c(C(=O)OC)c1C,inactive: 9.41%,–
COc1ccc(CNC(=O)CN(c2ccccc2OC)S(=O)(=O)c2ccc(C)cc2)cc1,inactive: -15.4%,–
CCc1ccc(CSc2nc(-c3ccc(OC)cc3)nc3c2Cc2c(CO)cnc(C)c2O3)cc1,inactive: 3.34%,–
O=S(=O)(NCc1ccccc1)c1ccc(-c2cnc(C3CC3)o2)cc1,inactive: 14.5%,–
COc1ccc(CCNC(=O)CCCCn2c(=O)c3ccccc3n(CC(=O)Nc3ccccc3C)c2=O)cc1OC,inactive: -19.6%,–
CCCOc1cccc(C(=O)Nc2ccc(-c3nc4ccccc4s3)c(Cl)c2)c1,inactive: -8.98%,–
CCc1ccccc1NC(=O)Cn1c(=O)nc(-c2ccccc2)c2ccccc21,inactive: 0%,–

SMILES,"activity change, negative = inhibition",Potency
COc1ccc(CCNC(=O)CCn2c(=O)c3ccccc3n(Cc3ccc(Cl)cc3)c2=O)cc1OC,inactive: -4.01%,–
COc1ccc(CNC(=O)C2CCN(c3nc4ccc(C)cc4[nH]3)CC2)cc1,–,active: 13.1 µM
CCn1c2c(c(=O)n3ncc(C(=O)Nc4cccc(Cl)c4C)c13)CN(Cc1ccc(OC)cc1)CC2,inactive: 1.59%,–
CCOC(=O)c1c(C)[nH]c(C)c1S(=O)(=O)N1CCC(C(=O)NCc2ccc(C)cc2)CC1,inactive: 6.06%,–
C=C(C)CSc1nc2sc3c(c2c(=O)n1CCCC)CCCC3,inactive: 2.32%,–
Cc1cc(C)cc(NC(=O)CSc2nncn3c2cc2occc23)c1,inactive: -9.25%,–
CCCC(O)c1nc2ccccc2n1CCCCOc1ccc(OC)cc1 (centres undefined),inactive: -0.502%,–
CCCn1c(SCC(O)c2cccc(OC)c2)nc2ccccc21 (centres undefined),inactive: 2.17%,–
O=C(Nc1ccc(N2CCN(CCOc3ccc(Cl)cc3)CC2)c(C(=O)O)c1)c1ccc(F)cc1,inactive: -0.705%,–
COc1ccc(CNC(=O)c2nnn(CC(=O)Nc3cc(C)cc(C)c3)c2N)cc1,inactive: 0.657%,–
Cc1ccc(C)c(CN2CCCN(Cc3cc(C)ccc3C)S2(=O)=O)c1,inactive: -5.73%,–
COc1ccccc1C(=O)NC1(C(F)(F)F)C(=O)Nc2c1c(=O)[nH]c(=O)n2CCc1ccccc1 (centres undefined),inactive: -14.7%,–
COC(=O)c1ccc(-n2c(/C=C\c3cccc(Br)c3)nc3ccccc3c2=O)cc1,inactive: 4.45%,–
CCc1nc2ccccc2n1CCCCOc1ccccc1C,inactive: -1.12%,–
Cc1ccc(S(=O)(=O)C(CNC(=O)C(=O)NCCc2ccccc2)c2ccco2)cc1 (centres undefined),inactive: -0.0123%,–
Cc1ccc(OCc2nc(-c3ccc(C(=O)N4CCN(c5ccc(Cl)cc5)CC4)cc3)oc2C)cc1,inactive: -0.703%,–
Cc1cccc(-c2nc(SCC(=O)Nc3cccc(C(F)(F)F)c3)n3[nH]c(=O)cc3n2)c1,inactive: -6.22%,–
CCOc1ccc(CNC(=O)C2CCCN(S(=O)(=O)c3ccc4c(c3)CCCC(=O)N4)C2)cc1 (centres undefined),inactive: 1.46%,–
CC(C)Oc1ccc(CNC(=O)Cn2c(=O)oc3ccccc32)cc1,inactive: -12.8%,–
Cc1nn(Cc2ccc(Cl)cc2)c(C)c1NC(=O)c1noc2c1CCc1ccccc1-2,inactive: 0.889%,–
Cc1cc(C(=O)NCc2ccccc2C)c2c(C)nn(-c3cccc(F)c3)c2n1,inactive: -1.59%,–
CCOC(=O)C1=C(CN2CCN(CC)CC2)NC(=O)NC1c1ccc(Cl)cc1 (centres undefined),inactive: -5.52%,–
CCCCCCn1c(CNC(=O)c2ccccc2)nc2ccccc21,inactive: -5.69%,–
CCCn1c(=O)sc2cc(NC(=O)c3ccccc3OCC)ccc21,inactive: -1.1%,–

SMILES,"activity change, negative = inhibition",Potency
O=C(CC1N=C2c3ccccc3N=C(SCc3ccc(F)cc3)N2C1=O)NCc1cccs1 (centres undefined),inactive: -6.82%,–
CCOC(=O)c1scc(-c2ccc(C)cc2)c1S(=O)(=O)Nc1cc(Cl)ccc1OC,inactive: -10.8%,–
CCn1c(SCC(=O)c2ccc([N+](=O)[O-])cc2)nnc1-c1ccc(Cl)cc1,inactive: 0.183%,–
CCc1ccc(NC(=O)Cn2ncc3c4ccccc4n(C)c3c2=O)cc1,inactive: -0.938%,–
COc1cccc(CNC(=O)Cn2cc3c(n2)-c2c(oc(C(=O)N4CCCC4)c2C)CC3)c1,inactive: -4.9%,–
CCCCn1cc(S(=O)(=O)c2ccc(OC)cc2)c(=O)c2cc(F)c(F)cc21,inactive: -7.71%,–
Clc1cccc(-c2csc(-c3nc(-c4ccc(Br)s4)cs3)n2)c1,inactive: -5.12%,–
CCc1ccc(NC(=O)CSc2nc(-c3ccccc3)c(C#N)c(=O)[nH]2)cc1,inactive: -0.602%,–
COC(=O)Cn1c(CN2CCN(c3ccc(OC)cc3)CC2)nc2c1c(=O)[nH]c(=O)n2C,inactive: -11%,–
CCOC(=O)c1c(S(=O)(=O)NCC(=O)Nc2cccc(CC)c2)c(C)n(C)c1C,inactive: -8.71%,–
CCOc1ccc(NC(=O)c2cc(S(=O)(=O)NC3CCCC3)ccc2F)cc1,inactive: 6.31%,–
COc1ccc(NC(=O)Cn2c(=O)n(-c3ccc(CC(=O)NCC4CCCO4)cc3)c(=O)c3ccccc32)c(OC)c1 (centres undefined),inactive: 3.65%,–
COc1ccc(NC(=O)c2cc3c([nH]c2=O)CC(c2ccccc2)CC3=O)cc1 (centres undefined),inactive: 28%,–
COc1ccc(-c2nn3c(-c4ccc(C)cc4)nnc3c3ccccc23)cc1,inactive: -0.562%,–
COc1cccc(CN2C(=O)c3ccccc3Sc3ccc(C(=O)NCCc4ccc(Cl)cc4)cc32)c1,inactive: -7.44%,–
COc1ccc(C2=Nn3c(nc4sc(C(=O)Nc5cccc(C)c5)c(C)c4c3=O)SC2)cc1,inactive: -0.0178%,–
COc1ccc(NC(=O)c2ccc3c(c2)c(C)c(C)n3Cc2ccc(F)cc2)c(OC)c1,inactive: -9.33%,–
CCc1ccc(OCC(=O)N(Cc2ccco2)Cc2ccco2)cc1,inactive: -2.49%,–
COc1ccccc1NC(=O)CCn1nc(-c2ccccc2)c2ccccc2c1=O,inactive: -15.3%,–
O=C(C1CCN(c2nc3ccccc3[nH]2)CC1)N1CCN(c2ccccc2)CC1,inactive: -16.4%,–
Cc1cc(C)cc(OCc2cc(=O)n3cc(C)sc3n2)c1,inactive: 0.246%,–
COc1ccccc1N1CCN(c2nc3ccc(C)cc3nc2-n2nc(C)cc2C)CC1,inactive: -19.1%,–
